This is one part of the list. The full chains were built here from the parent and the listed change. Inactive controls read about 0.05.
B1: TEV protease; numbered along this chain (parent)
chain: MGESLFKGPRDYNPISSSICHLTNESDGHTTSLYGIGFGPFIITNKHLFRRNNGTLVVQSLHGVFKVKDTTTLQQHLVDGRDMIIIRMPKDFPPFPQKLKFREPQREERICLVTTNFQTKSMSSMVSDTSCTFPSGDGIFWKHWIQTKDGQCGSPLVSTRDGFIVGIHSASNFTNTNNYFTSVPKNFMELLTNQEAQQWVSGWRLNADSVLWGGHKVFMVKPEEPFQPVKEATQL

Variants of: B1
Test: raw area under fraction-flipped curve 0-4 h after induction (AUC4h, not background-subtracted), DNA-recorder readout of cleavage of the substrate (dimensionless); higher = more cleavage of the substrate by the protease variant
Settings: temperature: 34 °C; time window: 0-4 h after rhamnose induction
Experimental: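 In vivo DNA recorder in E. coli TOP10(DE3) ΔrhaA at 34 °C. Each TEVp single-site mutant (parent TEVp 0) is paired with a single-site variant of the 7-mer TEVs (canonical ENLYFQ|S). The substrate sits between flexible linkers in a Bxb1-sfGFP-TEVs-SsrA fusion, so cleavage stabilises Bxb1 and speeds flipping of a recombination array, read by NGS. The value is the raw area under the fraction-flipped curve over 0-4 h after rhamnose induction (AUC4h), with ≥20 reads per time point. It is not background-subtracted; inactive controls average about 0.047.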
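Also: Bxb1 expression induced with 0.2% (w/v) L-rhamnose at OD600 near 0.5, cultures sampled hourly, flipped fraction per protease–substrate barcode pair counted by paired-end Illumina sequencing.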

Row | Variant | area with substrate ENAYFQS | area with substrate ENCYFQS | area with substrate ENDYFQS | area with substrate ENEYFQS | area with substrate ENGYFQS | area with substrate ENHYFQS | area with substrate ENKYFQS | area with substrate ENMYFQS | area with substrate ENNYFQS | area with substrate ENPYFQS | area with substrate ENQYFQS | area with substrate ENRYFQS | area with substrate ENTYFQS | area with substrate ENVYFQS | area with substrate ENWYFQS | area with substrate ENYYFQS | area with substrate ENIYFQS | area with substrate ENFYFQS | area with substrate ENSYFQS
1 | G63T | 0.0528 | 0.0807 | 0.0666 | 0.0757 | 0.0613 | 0.041 | 0.0528 | 0.0772 | 0.0554 | 0.0715 | 0.0687 | 0.0565 | 0.0661 | 0.0782 | 0.0626 | 0.0466 | – | – | –
2 | L73R | 0.061 | – | – | 0.0445 | – | 0.0446 | 0.0522 | – | 0.0586 | 0.0419 | 0.0566 | 0.0452 | 0.0583 | 0.0373 | 0.0525 | – | 0.0539 | – | –
3 | L73E | 0.0596 | – | 0.0394 | – | 0.0623 | – | – | 0.0205 | 0.0385 | – | – | – | – | – | – | – | – | 0.0548 | 0.0582
4 | V58R | 0.0327 | – | 0.0457 | 0.0448 | 0.0714 | – | 0.0625 | – | 0.0396 | 0.0516 | 0.0704 | – | 0.0429 | – | 0.036 | – | 0.0569 | 0.0384 | 0.0447
5 | S60C | 0.0604 | 0.0578 | 0.057 | 0.0601 | 0.0554 | 0.0581 | 0.0442 | 0.0692 | 0.0605 | 0.063 | 0.0517 | 0.062 | – | 0.0734 | – | 0.0443 | 0.106 | 0.0581 | 0.0631
6 | T70L | 0.0649 | 0.0702 | 0.0591 | – | 0.0618 | 0.0588 | 0.077 | 0.071 | 0.0598 | 0.0619 | 0.0483 | 0.038 | 0.0568 | 0.0235 | 0.0607 | 0.0509 | 0.0808 | 0.0648 | 0.0746
7 | T70R | 0.0571 | 0.059 | 0.0528 | 0.062 | 0.0534 | 0.0613 | – | – | 0.0499 | – | 0.0527 | 0.0541 | 0.0526 | – | – | – | 0.0822 | 0.0663 | –
8 | T71V | 0.0635 | 0.0612 | 0.0483 | 0.0679 | 0.0746 | 0.0503 | 0.0525 | – | 0.0649 | – | 0.0688 | 0.0594 | – | – | 0.0147 | 0.0599 | 0.0976 | 0.062 | 0.0648
9 | K66M | 0.0642 | 0.0747 | 0.0541 | 0.0664 | 0.0601 | – | – | 0.0803 | 0.0578 | 0.0441 | 0.0569 | – | 0.071 | – | 0.0179 | 0.0533 | – | 0.0402 | 0.0601
10 | K66D | 0.0622 | 0.0653 | 0.0592 | 0.0371 | 0.0651 | 0.0633 | – | 0.0679 | – | 0.0558 | 0.0657 | – | – | – | – | – | 0.0989 | 0.0858 | 0.054
11 | I84A | 0.0611 | – | 0.0711 | 0.0623 | – | 0.0535 | – | – | 0.0614 | – | 0.0602 | – | – | – | – | – | – | 0.0505 | 0.0659
12 | I84S | 0.0512 | 0.0695 | 0.0544 | 0.0532 | 0.0496 | – | – | 0.0584 | 0.0622 | 0.0341 | 0.0574 | 0.0449 | 0.0562 | 0.0577 | – | – | 0.0668 | 0.0561 | 0.0444
13 | N52Q | 0.0562 | 0.0534 | 0.0651 | 0.139 | 0.0607 | – | 0.0644 | – | – | – | 0.0609 | 0.0615 | – | – | – | 0.0555 | 0.123 | – | 0.0647
14 | T55C | 0.0701 | 0.0761 | 0.0563 | 0.0608 | 0.0642 | – | – | – | 0.0625 | 0.0656 | 0.0591 | 0.0539 | – | 0.0806 | – | 0.0702 | 0.105 | 0.0618 | 0.0307
15 | H76L | 0.0674 | – | 0.0497 | 0.0528 | 0.0575 | 0.0573 | 0.0499 | – | – | 0.0739 | 0.0654 | 0.0656 | 0.07 | 0.0683 | – | – | – | 0.0773 | –
16 | H76W | 0.104 | 0.0841 | 0.073 | 0.0735 | – | 0.0632 | 0.0507 | 0.05 | – | 0.056 | 0.0474 | 0.0483 | 0.0703 | 0.0674 | – | 0.065 | – | 0.0685 | 0.051
17 | H76M | 0.0548 | – | 0.0619 | – | – | – | – | – | – | – | – | – | 0.0651 | 0.0794 | – | – | – | 0.0702 | 0.0624
18 | Q59G | 0.0567 | 0.0362 | 0.0476 | 0.0652 | 0.0468 | 0.0621 | 0.0585 | 0.0587 | 0.0568 | – | 0.0637 | 0.0174 | – | 0.0788 | 0.0374 | 0.0582 | – | 0.0385 | 0.0605
19 | H62I | 0.0505 | – | 0.0562 | 0.0256 | – | 0.0559 | – | 0.0771 | 0.0599 | – | 0.0547 | 0.0749 | 0.0677 | 0.0681 | – | – | 0.0971 | – | 0.0621
20 | H62Y | 0.0592 | – | 0.0619 | – | 0.0609 | 0.0584 | – | 0.0752 | – | 0.0594 | 0.0641 | 0.0549 | 0.0678 | 0.0491 | – | 0.0535 | – | – | 0.0616
21 | I85T | 0.0739 | 0.0592 | 0.0602 | 0.0335 | 0.0637 | – | – | – | 0.0622 | 0.0582 | – | 0.0532 | 0.0439 | 0.0795 | – | – | 0.0602 | 0.072 | –
22 | I85Y | 0.0541 | – | 0.079 | 0.0653 | 0.0609 | 0.0563 | 0.0635 | 0.0543 | 0.0655 | 0.0566 | 0.0426 | – | 0.0539 | 0.051 | – | 0.0646 | 0.0559 | 0.0704 | 0.0633
23 | V67A | 0.0704 | – | 0.0574 | 0.0417 | 0.0762 | 0.0549 | – | 0.0536 | 0.0618 | 0.06 | 0.0488 | 0.0572 | 0.0612 | 0.0675 | 0.001 | 0.0466 | – | – | 0.0307
24 | V67S | 0.0563 | – | 0.0567 | 0.0686 | 0.0694 | 0.0683 | 0.0802 | – | 0.0557 | – | 0.056 | 0.024 | – | 0.0769 | 0.041 | 0.0495 | – | 0.0348 | 0.0443
25 | V67W | 0.0605 | 0.0559 | 0.0614 | 0.0598 | 0.0675 | 0.0408 | 0.045 | – | 0.0576 | – | 0.0691 | 0.0597 | 0.0571 | 0.0708 | – | – | – | 0.0892 | 0.0576
26 | R50C | 0.0572 | 0.0657 | 0.0637 | 0.0672 | 0.0452 | – | 0.0688 | – | – | – | 0.0287 | 0.0525 | – | 0.0781 | – | 0.0551 | – | 0.0665 | 0.0649
